From PubChem BioAssay AID1508623 (National Center for Advancing Translational Sciences (NCATS), 2021)
The whole screen tested about 48,000 compounds, of which about 450 (0.94%) were called active. About 19% were inconclusive and are not listed. Calls come from the whole dose curve; as a rule, active = well fitted inhibition curve with a large enough effect; inconclusive = small, poorly fitted or top-dose-only effect; inactive = no such curve, though single readings can be large or run the other way. Some of the results follow.

Experiment: Primary qHTS for Identification of Small Molecule Inhibitors of Huntingtin Promoter Activity; note: nearly all actives have a fitted effect of over 50% in size
Conditions: HEK293 HTT promoter firefly luciferase reporter (activity 0% = vehicle and -100% = no light), 24 h; series mostly up to 57.5 µM; activity change, negative = inhibition: at the top concentration
In short: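 Luminescence was read after Dual-Glo reagent and a 10 min room-temperature incubation. Values were normalized to vehicle (0% activity) and zero RLU (-100% activity). Reporter HEK293 cells had been exposed to compounds (up to 57.5 uM final) for 24 h.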

Row | Structure (SMILES) | activity change, negative = inhibition
1 | CCn1nc(C)c2c(-c3ccccc3)cc(=O)n(C(C)C(=O)NCc3ccccc3OC)c21 (configuration not stated) | inactive: -29.1%
2 | Cc1ccccc1C(=O)Nc1cccc(OCc2cc(=O)n3cccc(C)c3n2)c1 | inactive: 10.8%
3 | Cc1ccc(C)c(NC(=O)Cn2cc(S(=O)(=O)Cc3cccc(Cl)c3)c3ccccc32)c1 | inactive: -12.4%
4 | CCc1ccc(NC(=O)CN2C(=O)CSc3ccc(S(=O)(=O)N(C)C)cc32)cc1 | inactive: -8.94%
5 | CCn1cc(C(=O)NCCc2ccc(OC)c(OC)c2)c(=O)c2cc(S(=O)(=O)N(C)C3CCCCC3)ccc21 | inactive: -30%
6 | CC(=O)O[C@]1(C(C)=O)CC[C@H]2[C@@H]3C=C(Cl)C4=CC(=O)CC[C@]4(C)[C@H]3CC[C@@]21C | inactive: -6.99%
7 | COc1ccc2cc3c(N)nn(C(=O)c4ccccc4Cl)c3nc2c1 | inactive: -29.4%
8 | CCc1ccc(NCc2cc3ccc(OC)cc3n(CC(=O)Nc3c(C)cc(C)cc3C)c2=O)cc1 | inactive: -4.62%
9 | CCCNC(=O)NS(=O)(=O)c1ccc(Cl)cc1 | inactive: 11.8%
10 | CC(C)Oc1ccc(C(=O)N(Cc2ccc(N(C)C)cc2)C2CCS(=O)(=O)C2)cc1 (configuration not stated) | inactive: -17.1%
11 | Cn1nnc2c(N3CCN(c4ccc(F)cc4)CC3)ncnc21 | inactive: -25.7%
12 | Cc1ccccc1CNC(=O)CCS(=O)(=O)c1cc2c3c(c1)CCN3C(=O)CC2 | inactive: -2.89%
13 | Fc1ccc(-n2ncc3c(Nc4ccc5c(c4)OCCO5)ncnc32)cc1 | inactive: 2.33%
14 | Cc1ccc(N2CCN(C(=O)c3cc4cc5ccc(C)cc5nc4s3)CC2C)cc1 (configuration not stated) | inactive: 0.798%
15 | Cc1ccc(Nc2sc(C(=O)c3ccccc3)c(N)c2S(=O)(=O)c2ccccc2)cc1Cl | inactive: -27.2%
16 | CCc1ccc(CNC(=O)Cn2nc(-c3ccc(C)cc3)ccc2=O)cc1 | inactive: -9.04%
17 | COc1ccccc1N1CCN(C(=O)CCS(=O)(=O)c2ccc3c(c2)oc(=O)n3C)CC1 | inactive: -13.9%
18 | COc1ccc(O)c(C2=Nc3ccccc3N=C(c3ccccc3)C2)c1 | inactive: -22.6% [at 11.5 µM]
19 | CCOC(=O)c1nc(Nc2ccc(C(=O)OC(C)C)cc2)c2ccccc2n1 | inactive: -9.19%
20 | COc1ccc(-c2nc(N3CCOCC3)c3sc(CN(C)c4ncc(C(=O)NO)cn4)cc3n2)cn1 | inactive: 109%
21 | COc1ccccc1NC(=O)c1oc2ccccc2c1NC(=O)Cc1ccccc1 | inactive: -15.5%
22 | O=C(CN1C(=O)CC(c2ccccc2)=Nc2ccccc21)Nc1ccc(Br)cc1 | inactive: -24.2%
23 | CNC(=O)c1ccc2c(c1)N(Cc1cc(C)ccc1C)C(=O)c1ccccc1S2 | inactive: -23%
24 | COc1ccc(CNC(=O)c2ccc(-c3nc(CSc4ccc(C)cc4)c(C)o3)cc2)c(OC)c1 | inactive: -19.1%
25 | Cc1cccc(CCNC(=O)c2cc3c(s2)-c2c(C)cccc2OC3)c1 | inactive: -33.8%

Row | Structure (SMILES) | activity change, negative = inhibition
26 | Cc1ccc2c(c1)N(C(=O)Nc1cccc3c1CCCC3)CCO2 | inactive: -13.4%
27 | CCCN1CCN(C(=O)Cn2c(-c3cccs3)cc3cc(F)ccc32)CC1 | inactive: -3.25%
28 | O=C(CSc1cn(CC(=O)N2CCCCC2)c2ccccc12)Nc1ccccc1 | inactive: -28.9%
29 | Cc1ccc(C)c(NC(=O)C2CCCN(c3ncnc4onc(C)c34)C2)c1 (configuration not stated) | inactive: -10.6%
30 | O=C(Cn1c(=O)n(-c2ccccc2)c(=O)c2c3c(sc21)CCCC3)Nc1ccc(F)cc1F | inactive: -4.06%
31 | Cc1cc(=O)n(Cc2ccc(Cl)cc2)c2c1c(C)nn2-c1ccccc1 | inactive: -8.84%
32 | O=C(NCc1noc2ccccc12)N1CCN(c2ccccc2)CC1 | inactive: 11.8%
33 | O=C(NCC(c1ccco1)S(=O)(=O)c1cccs1)c1ccc(F)c(F)c1 (configuration not stated) | inactive: -12.1%
34 | CCc1ccccc1NC(=O)N1CCCn2nc(C)cc21 | inactive: -14.6%
35 | Cc1nc(-c2ccccc2)sc1-c1ccc(SCC(=O)NCc2ccccc2Cl)nn1 | inactive: 13.2%
36 | Cc1nn(C)c2c1c(-c1ccccc1)cc(=O)n2CC(=O)NC(C)c1ccccc1 (configuration not stated) | inactive: -22.9%
37 | CCOc1ccc(-c2cc3nc(C4CCN(C(=O)OC(C)(C)C)CC4)c(C(=O)Nc4cc(OC)ccc4OC)cn3n2)cc1 | inactive: -30.8%
38 | Cc1ccc(Cl)cc1NC(=O)c1sc(-n2nc(C)c(Cc3ccc4c(c3)OCO4)c2C)nc1C | inactive: -2.8%
39 | CCCCCn1c(CN2CCN(c3ccc(OC)cc3)CC2)nc2c1c(=O)[nH]c(=O)n2C | inactive: -19.3%
40 | Cc1ccc(Cl)cc1NC(=O)Nc1cccc(OCc2cc(=O)n3ccccc3n2)c1 | inactive: 13.8%
41 | Cc1cc(=O)n(Cc2ccccc2)c2c1c(C)nn2C | inactive: -28.8%
42 | COCCNC(=O)c1ccc2nc(Cc3ccccc3)oc2c1 | inactive: 8.89%
43 | CC(C)N(CCCNC(=O)Cn1ncc2c([nH]c3ccccc32)c1=O)Cc1ccccc1 | inactive: -0.509%
44 | Cc1ccc(Nc2nnc(-c3ccc(C)c(S(=O)(=O)N4CCOCC4)c3)c3ccccc23)cc1 | inactive: -17.8% [at 11.5 µM]
45 | Cc1cc(C)c2c(=O)cc(C(=O)Nc3sc4c(c3C(=O)NCC3CCCO3)CCCC4)oc2c1 (configuration not stated) | inactive: 9.29%
46 | CCC(=O)C1=C(c2ccc(OC)c(OC)c2)N(C(=O)CC)n2c(nnc2-c2ccc(C)cc2)S1 | inactive: -4.76%
47 | CC(=O)c1ccc(N2CCN(c3ccc4cc(S(=O)(=O)N5CCCCC5)ccc4n3)CC2)cc1 | inactive: 0%
48 | CCOC(=O)c1ccc(NC(=O)CSc2nc3ccccc3c(=O)n2CCC(=O)NC2CCCCC2)cc1 | inactive: 12.8%
49 | COc1ccc(-c2nc(CS(=O)(=O)CC(=O)NCCc3ccc(C)cc3)c(C)o2)cc1 | inactive: -10.1%
50 | CC(=O)c1cc(-c2ccccc2)n(CC(=O)Nc2ccc(C)c(C)c2)c1C | inactive: -27.4%

Row | Structure (SMILES) | activity change, negative = inhibition
51 | CCOc1ccc(CNC(=O)CS(=O)(=O)c2cccc3nsnc23)cc1 | inactive: -12.9%
52 | COc1ccccc1-c1noc(-c2ccc(NC3CCCC3)c([N+](=O)[O-])c2)n1 | inactive: 40%
53 | Cc1cc2nc(-c3ccc(NC(=O)c4ccccc4F)cc3)oc2cc1C | inactive: 26.9%
54 | CN(C)c1ccc(N=NS(=O)(=O)O)cc1 | inactive: -15.2% [at 116 µM]
55 | Cc1cccc(C(=O)Nc2ccc3nc(SCCOc4ccccc4)sc3c2)c1 | inactive: -6.04%
56 | COc1ccc(CCNc2nc(SCc3ccc(Cl)cc3)nc3ccccc23)cc1OC | inactive: -3.87%
57 | Nc1ncc(S(=O)(=O)Nc2ccc(F)cc2F)cn1 | inactive: -7.65%
58 | CCc1cnc2c(c1SCC(=O)NCc1ccc(F)cc1)c(=O)n(C)c(=O)n2C | inactive: -1.93%
59 | Nc1c(C(=O)Nc2cccc(F)c2)c2ccccn2c1C(=O)c1ccccc1 | inactive: -1.46%
60 | CCOC(=O)c1c(NC(=O)COc2cccc(C)c2C)sc(C(C)=O)c1C | inactive: -4.68%
61 | COc1ccc(N2CCN(C(c3ccccc3F)c3sc4nc(-c5ccco5)nn4c3O)CC2)cc1 (configuration not stated) | inactive: -2.45%
62 | COc1ccc(Cl)cc1NC(=O)Cn1c(=O)c(-c2ccccc2NC(C)=O)nc2ccccc21 | inactive: -1.34%
63 | COc1ccc(NC(=O)CN2C(=O)COc3ccc(S(=O)(=O)N4CCCCC4)cc32)cc1OC | inactive: -10.8%
64 | Cc1cc(C)c2c(c1)c(C)cc1nnc(SCC(=O)c3ccc(F)cc3)n12 | inactive: -2.6%
65 | CCCCC(=O)N1CCc2cc(OC)c(OC)cc2C1COc1ccc(OC)cc1 (configuration not stated) | inactive: -28.2%
66 | Cc1ccc(C)c(Cn2c(C(=O)O)c(CNCc3cccs3)c3ccccc32)c1 | inactive: -25.2%
67 | Cc1cc(-c2ccccc2)n2nc(-c3ccccc3)cc2n1 | inactive: -15.8%
68 | CN(C)CCNC(=O)C(=O)NCC(c1ccc2c(c1)OCO2)N1CCOCC1 (configuration not stated) | inactive: 1.01%
69 | CCOc1ccc(C(c2c(O)cc(C)n(Cc3ccco3)c2=O)N2CCCCC2)cc1 (configuration not stated) | inactive: -12.5%
70 | Cc1ccc(NC(=O)CC2Sc3ccc(C(F)(F)F)cc3NC2=O)cc1 (configuration not stated) | inactive: -3.38%
71 | COc1ccc(CNC(=O)Nc2cn(CC(C)C)c(=O)c3ccccc23)cc1 | inactive: -11.5%
72 | CC(=O)c1ccc(NC(=O)CN(C)S(=O)(=O)c2cnc[nH]2)cc1 | inactive: -10.2%
73 | Cc1ncc(CO)c(C=O)c1O | inactive: 4.73%
74 | Cc1ccc(OCCSc2nc(C)c(Cc3ccccc3)c(=O)[nH]2)cc1 | inactive: -11.9%
75 | Cc1cc(C)c(NC(=O)CSc2nncn3c2cc2oc(C)cc23)c(C)c1 | inactive: 0.588%

Row | Structure (SMILES) | activity change, negative = inhibition
76 | CCN1C(=O)c2ccccc2C1Nc1ccc(OCCN2CCCCC2)cc1 (configuration not stated) | inactive: -0.844%
77 | O=C(CCCc1ccccc1)NC1CC(=O)N(c2ccc(F)cc2)C1 (configuration not stated) | inactive: 4.55%
78 | CC(=O)c1cccc(NS(=O)(=O)c2cc3c(cc2C)N(C(C)=O)CCO3)c1 | inactive: 8.54%
79 | Cc1ccc(NC(=O)N2CCC(CN3CCCC3)CC2)c(C)c1 | inactive: -16.1%
80 | Cc1ccc(-c2nc(C(=O)NCc3ccccc3Cl)c3n2CCCCC3)cc1 | inactive: -22.9%
81 | CCC(=O)Oc1ccc(C2Nc3ccccc3-c3nnc(SC)nc3O2)cc1 (configuration not stated) | inactive: 5.68%
82 | CN1N=C(C(N)=O)CCC1=O | inactive: 11.8%
83 | Cc1ccc2nc(-c3cc(NC(=O)COc4ccc(C)c(C)c4)ccc3Cl)oc2c1 | inactive: 6.78%
84 | O=C1[C@H]2CCCC[C@H]2C(=O)N1CCCCN1CCN(c2nsc3ccccc23)CC1 | inactive: -0.335%
85 | COC(=O)c1cc(C)nc2c1c(=O)nc(SCc1ccccc1C)n2C1CC1 | inactive: -33.2%
86 | Cc1ccc(C(=O)NCC(c2ccc3c(c2)OCO3)N2CCOCC2)cc1 (configuration not stated) | inactive: -11.8%
87 | Cc1c(-c2nc(-c3ccc4c(c3)OCO4)no2)nnn1-c1ccc(C(C)C)cc1 | inactive: 1.17%
88 | CCc1nn(CCCC(=O)N2CCN(c3cccc(OC)c3)CC2)c(=O)c2cc3occc3n12 | inactive: -12.3%
89 | Cc1cccc(NC(=O)C(Cc2ccccc2)NS(=O)(=O)c2ccc3c(c2)c(=O)n(C)c(=O)n3C)c1 (configuration not stated) | inactive: -11.9%
90 | CC(=O)Nc1c(C)nn(-c2ccccc2)c1N1CCC(C(=O)NCc2ccccc2Cl)CC1 | inactive: -14.1%
91 | Cc1ccc(S(=O)Cc2nc(-c3ccc(C(=O)NCc4cccc(C)c4)cc3)oc2C)cc1 (configuration not stated) | inactive: -7.12%
92 | O=C(CCn1nc(-c2ccc(Cl)cc2)ccc1=O)NCCc1ccccc1 | inactive: 17.5%
93 | CCOC(=O)c1c(NC(=O)CSc2cn(CCNC(=O)c3c(F)cccc3F)c3ccccc23)sc2c1CCC2 | inactive: -25.6%
94 | CCOC(=O)COc1ccc(F)cc1C(=O)c1ccn2nc(-c3ccc(Cl)cc3)cc2n1 | inactive: -2.89%
95 | CCOC(=O)c1noc2ncnc(Nc3cccc(OC)c3)c12 | inactive: -25.2%
96 | O=C(COc1ccccc1Cl)Nc1ccc2nc(SCC(=O)N3CCCC3)sc2c1 | inactive: -25.1%
97 | CCCn1c(=O)c2sccc2n2c(CCCC(=O)NCc3ccccc3)nnc12 | inactive: -21.2%
